# According to the RNAGym collection of RNA variant scans (doi:10.1101/gad.245936.114):
# Variants at the background level are over-represented here.
# B1: tRNA (parent)
# chain: CUCUCGGUAGCCAAGUUGGUUUAAGGCGCAAGACUUUAAUUUAUCACUACGAAAUCUUGAGAUCGGGCGUUCGACUCGCCCCCGGGAGAUUUUUUCCUCGAGCAA
# Variants of: B1
# Assay: nonsense suppression (GFP-seq) (ratio to wild type); higher = more function; SUP4oc tRNA, yeast GFP reporter sort-seq
# Outline: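 Sorted GFP/RFP bins of yeast were each Illumina-sequenced with a phred ≥30 cutoff; the cells held a genome-integrated ochre-suppressor tRNA variant from a library with ~3% random mutations, a galactose-driven GFP ochre reporter, and RFP. Culture was in raffinose/galactose medium containing 80 mg/L adenine. Nonsense suppression, termed GFPSEQ, is the median GFP/RFP of the bins weighted by each variant's estimated cell share per bin, relative to the unmutated parent tRNA, for variants reaching ≥100 reads and ≥30 cells.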
row,Variant,nonsense suppression
1,U58A U70C A74G,≤ 0.026
2,U58C,≤ 0.026
3,U58C C68A U70C,≤ 0.026
4,U58C G59A G69A C80A,≤ 0.026
5,U58C G59C,≤ 0.026
6,U58C G61A,0.0586
7,U58C G61C,0.0324
8,U58C G65U,≤ 0.026
9,U58C G69A,≤ 0.026
10,U58C U63C,0.144
11,U58C U63G G84A G86A,≤ 0.026
12,U58C U76A,≤ 0.026
13,U58G,≤ 0.026
14,U58G A60G G85U,≤ 0.026
15,U58G A62U C80A A87U,≤ 0.026
16,U58G A74C C82A,≤ 0.026
17,U58G A89U,≤ 0.026
18,U58G C64G C83A,≤ 0.026
19,U58G C64G C83G,≤ 0.026
20,U58G C72A U76C,≤ 0.026
21,U58G C72A U76G,≤ 0.026
22,U58G C75U,≤ 0.026
23,U58G C77U,≤ 0.026
24,U58G C79G A89G,≤ 0.026

row,Variant,nonsense suppression
1,U58G C83A,≤ 0.026
2,U58G G59A C80U G86U,≤ 0.026
3,U58G G61A A89U,≤ 0.026
4,U58G G65C C80A G86U G88U,≤ 0.026
5,U58G G65U,≤ 0.026
6,U58G G66A A87U,≤ 0.026
7,U58G G67A,≤ 0.026
8,U58G G67C,≤ 0.026
9,U58G G69A A89U,≤ 0.026
10,U58G G69C,≤ 0.026
11,U58G G69U C75A C83A,≤ 0.026
12,U58G G78C,≤ 0.026
13,U58G G86A,≤ 0.026
14,U58G G88A,≤ 0.026
15,U58G G88U,≤ 0.026
16,U58G U63A C64A G73C,≤ 0.026
17,U58G U63A C79A,≤ 0.026
18,U58G U63C,≤ 0.026
19,U58G U70C,≤ 0.026
20,U58G U71C,≤ 0.026
21,G59A,≤ 0.026
22,G59A A62U,≤ 0.026
23,G59A A87G,≤ 0.026
24,G59A C68G U76C,≤ 0.026

row,Variant,nonsense suppression
1,G59A C68U U76C,≤ 0.026
2,G59A C77U G78C,≤ 0.026
3,G59A C80G,≤ 0.026
4,G59A C82U,≤ 0.026
5,G59A G61A C75A C79G A89U,≤ 0.026
6,G59A G61A U71G G78U,≤ 0.026
7,G59A G61C,≤ 0.026
8,G59A G61U U71G,≤ 0.026
9,G59A G65C G88C,≤ 0.026
10,G59A G66C U76C,≤ 0.026
11,G59A G66U C83G,≤ 0.026
12,G59A G66U G73A,≤ 0.026
13,G59A G66U G73A C80A,≤ 0.026
14,G59A G67A C77G,≤ 0.026
15,G59A G73A,≤ 0.026
16,G59A G84C,≤ 0.026
17,G59A G85A,≤ 0.026
18,G59A G86A,≤ 0.026
19,G59A G86C,≤ 0.026
20,G59A G86U,≤ 0.026
21,G59A U70C,≤ 0.026
22,G59A U70G,≤ 0.026
23,G59A U71G G85C,≤ 0.026
24,G59A U76G,≤ 0.026

row,Variant,nonsense suppression
1,G59C,≤ 0.026
2,G59C A60U,≤ 0.026
3,G59C A62C,≤ 0.026
4,G59C A62G,≤ 0.026
5,G59C A62U,≤ 0.026
6,G59C A87G,≤ 0.026
7,G59C C75G,≤ 0.026
8,G59C C77U,≤ 0.026
9,G59C C82G,≤ 0.026
10,G59C C83A,≤ 0.026
11,G59C G61U G73U,≤ 0.026
12,G59C G65C,≤ 0.026
13,G59C G65U,≤ 0.026
14,G59C G66U C83A A87C,≤ 0.026
15,G59C G66U G85A,≤ 0.026
16,G59C G67A,≤ 0.026
17,G59C G67C,≤ 0.026
18,G59C G67U,≤ 0.026
19,G59C G69A,≤ 0.026
20,G59C G69C,≤ 0.026
21,G59C G69C G88U,≤ 0.026
22,G59C G73C,≤ 0.026
23,G59C G73U,≤ 0.026
24,G59C G78C,≤ 0.026

row,Variant,nonsense suppression
1,G59C U63A C79A A87G,≤ 0.026
2,G59C U71A,≤ 0.026
3,G59C U71C,≤ 0.026
4,G59C U71G C77G,≤ 0.026
5,G59C U76A C79A,≤ 0.026
6,G59U,0.116
7,G59U A60C,≤ 0.026
8,G59U A74C C82U,≤ 0.026
9,G59U A89G,≤ 0.026
10,G59U C72A A87G,≤ 0.026
11,G59U C72G C79U G86C,≤ 0.026
12,G59U C75A G78C G84C G86C,≤ 0.026
13,G59U C80A C81G,≤ 0.026
14,G59U C81G C82A,≤ 0.026
15,G59U C82A,≤ 0.026
16,G59U G61C C79U,≤ 0.026
17,G59U G61U C64A,≤ 0.026
18,G59U G65C A89C,≤ 0.026
19,G59U G65C U71G C77G,≤ 0.026
20,G59U G65U A87C,≤ 0.026
21,G59U G67C,≤ 0.026
22,G59U G69A G85U,≤ 0.026
23,G59U G69U,≤ 0.026
24,G59U G86A,≤ 0.026

row,Variant,nonsense suppression
1,G59U G86C A89G,≤ 0.026
2,G59U G86U,≤ 0.026
3,G59U U63A C64A,≤ 0.026
4,G59U U70C C72A,≤ 0.026
5,G59U U76G C82G,≤ 0.026
6,A60C,0.489
7,A60C A62C,≤ 0.026
8,A60C A87U G88A,≤ 0.026
9,A60C C64G,≤ 0.026
10,A60C C64G C79A,≤ 0.026
11,A60C C64G U76C,≤ 0.026
12,A60C C75U,0.167
13,A60C C75U G78U,≤ 0.026
14,A60C C79G,≤ 0.026
15,A60C C79U,0.14
16,A60C C80A,≤ 0.026
17,A60C C81G,≤ 0.026
18,A60C G61U C79U,≤ 0.026
19,A60C G65A,≤ 0.026
20,A60C G65U,≤ 0.026
21,A60C G66U G84A G88A,≤ 0.026
22,A60C G73C C81A,≤ 0.026
23,A60C G73U C81A,≤ 0.026
24,A60C G84C,0.0911

row,Variant,nonsense suppression
1,A60C G84U G85U,≤ 0.026
2,A60C G85C,0.0595
3,A60C G88A,≤ 0.026
4,A60C U63C C68G,≤ 0.026
5,A60C U63G U70G,≤ 0.026
6,A60C U70A,≤ 0.026
7,A60C U70C,≤ 0.026
8,A60C U70C U71G,≤ 0.026
9,A60C U71A C72G,≤ 0.026
10,A60C U71G G84A G85U,≤ 0.026
11,A60G,1.14
12,A60G A62G U63C G66A,≤ 0.026
13,A60G A89U,0.0291
14,A60G C68A G88C,≤ 0.026
15,A60G C72G U76A,≤ 0.026
16,A60G C75A,0.976
17,A60G C81G,≤ 0.026
18,A60G C81U,0.0488
19,A60G C82G,≤ 0.026
20,A60G C83A G86A G88C,≤ 0.026
21,A60G G65C,≤ 0.026
22,A60G G65C A74C,≤ 0.026
23,A60G G66A,≤ 0.026
